In the supplement of paper PMC4967469:

Key:
Assay in all cases: Viability of human cancer cell lines after 72 h of drug (GDSC screen)
[1] = compound: O=C1/C(=C/c2cccs2)CC/C1=C\c1cccs1 [CCT007093]; conditions: top dose 6.6 µM; top dose inferred
Method: (§1)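 Human cancer cell lines in 384-well plates, medium with 10% serum, drug for 72 h over a 256-fold dose range (nine 2-fold or five 4-fold steps up to the top dose). Adherent lines were fixed and stained with the nucleic acid dye Syto60, suspension lines read with resazurin; signal relative to control wells, capped at 0 and 100%. One two-parameter sigmoid per drug and line, fitted in a mixed model over all curves with the slope shared within a line.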

[2] = compound: CCN1CCC(n2cc(CNc3cc(Cl)c4ncc(C#N)c(Nc5ccc(F)c(Cl)c5)c4c3)nn2)CC1 [KIN001-266]; conditions: top dose 20 µM; top dose inferred
Method: as §1

[3] = compound: C=CC(=O)N1CCc2ccc(-n3c(=O)ccc4cnc5ccc(-c6cnn(C)c6)cc5c43)cc21 [QL-XII-47]; conditions: top dose 10.24 µM; top dose inferred
Method: as §1

[4] = compound: COc1ccc(-c2cc3nccn3c(Nc3ncccc3C(N)=O)n2)cc1OC [BAY 61-3606]; conditions: top dose 8 µM; top dose inferred
Method: as §1

Cell Line	AUC [1]	IC50 [1] [µM]	AUC [2]	IC50 [2] [µM]	AUC [3]	IC50 [3] [µM]	AUC [4]	IC50 [4] [µM]
NOMO-1 (acute myeloid leukaemia, suspension)	0.9	> 6.6	0.802	11.5	0.556	0.929	0.835	6.32
NOS-1 (osteosarcoma, adherent)	0.975	> 6.6	0.823	15.5	0.503	0.652	0.501	0.502
NTERA-2 cl.D1 (testis, adherent)	0.966	> 6.6	0.856	15.8	0.697	2.27	0.728	2.21
NUGC-3 (stomach, adherent)	0.965	> 6.6	0.917	> 20	0.872	> 10.2	0.904	> 8
NY (osteosarcoma, adherent)	0.985	> 6.6	0.95	> 20	0.978	> 10.2	0.881	> 8
OAW-28 (ovary, adherent)	0.975	> 6.6	0.717	6.14	0.884	> 10.2	0.919	> 8
OAW-42 (ovary, adherent)	0.973	> 6.6	0.982	> 20	0.684	2.19	0.884	> 8
OCI-AML2 (acute myeloid leukaemia, suspension)	0.995	> 6.6	0.87	11.1	0.84	4.64	0.852	3.92
OCI-AML3 (acute myeloid leukaemia, suspension)	0.982	> 6.6	0.835	10.6	0.505	0.657	0.942	> 8
OCI-AML5 (acute myeloid leukaemia, suspension)	0.989	> 6.6	0.893	> 20	0.487	0.592	0.74	2.26
OCI-LY-19 (B-cell lymphoma, suspension)	0.986	> 6.6	0.743	5.8	0.502	0.648	0.588	0.852
OCI-M1 (acute myeloid leukaemia, suspension)	0.992	> 6.6	0.905	15.4	0.504	0.654	0.952	> 8
OCUB-M (breast, adherent)	0.945	> 6.6	0.854	12.6	0.378	0.31	0.806	3.43
OE19 (oesophagus, adherent)	0.978	> 6.6	0.928	> 20	0.986	> 10.2	0.852	7.52
OE21 (oesophagus, adherent)	0.946	> 6.6	0.914	> 20	0.912	> 10.2	0.854	> 8
OE33 (oesophagus, adherent)	0.984	> 6.6	0.833	16.4	0.92	> 10.2	0.802	4.84
OMC-1 (cervix, adherent)	0.987	> 6.6	0.96	> 20	0.818	6.13	0.966	> 8
ONS-76 (medulloblastoma, adherent)	0.959	> 6.6	0.874	> 20	0.531	0.78	0.868	> 8
OPM-2 (myeloma, suspension)	0.993	> 6.6	0.85	11.1	0.65	1.53	0.856	4.66
OS-RC-2 (kidney, adherent)	0.975	> 6.6	0.817	18.3	0.693	2.86	0.636	1.41
OSC-19 (head and neck, adherent)	0.976	> 6.6	0.87	19.9	0.806	5.48	0.971	> 8
OSC-20 (head and neck, adherent)	0.941	> 6.6	0.832	16.3	0.55	0.897	0.75	3.05
OV-90 (ovary, adherent)	0.977	> 6.6	0.892	> 20	0.81	7.33	0.894	> 8
OVCAR-3 (ovary, adherent)	0.983	> 6.6	0.981	> 20	0.986	> 10.2	0.919	> 8
OVCAR-4 (ovary, adherent)	0.969	> 6.6	0.868	> 20	0.817	9.8	0.905	> 8
OVCAR-5 (ovary, adherent)	0.977	> 6.6	0.909	> 20	0.632	1.6	0.849	7.99
OVCAR-8 (ovary, adherent)	0.99	> 6.6	0.862	14.3	0.83	5.5	0.868	6.05
OVISE (ovary, adherent)	0.968	> 6.6	0.863	> 20	0.689	2.61	0.89	> 8
OVKATE (ovary, adherent)	0.979	> 6.6	0.873	> 20	0.88	> 10.2	0.972	> 8
OVMIU (ovary, adherent)	0.966	> 6.6	0.87	> 20	0.595	1.25	0.892	> 8

A lower IC50 marks a more sensitive line; a limit (>, <) means that the fit lies beyond the doses tested. AUC, from the same fit, is the share of area under the viability curve across the 256-fold dose range; it is 1 without any effect and falls as sensitivity rises. The top dose, if marked as inferred, comes from the curve model; the source does not state it.
